From publication PMC12048663
Read-outs that look alike come from different tables or passages of the source. Results are given in words; binding and its absence hold for the method and conditions named. For some of these results: Binding seen in cells or lysates may run through a third protein. Some results given as binding are weak or reduced against the parent protein; the word gives no strength. For some of these results: Tags and fused reporters may be left off the sequences shown.

Amino acid sequences for entries named in this document (tags omitted). A change or cut given only in a name is not applied to a line headed by its entry. Chains listed by the source or under a name are the forms on record and can include a tag or linker.
UniProt Q2TAZ0: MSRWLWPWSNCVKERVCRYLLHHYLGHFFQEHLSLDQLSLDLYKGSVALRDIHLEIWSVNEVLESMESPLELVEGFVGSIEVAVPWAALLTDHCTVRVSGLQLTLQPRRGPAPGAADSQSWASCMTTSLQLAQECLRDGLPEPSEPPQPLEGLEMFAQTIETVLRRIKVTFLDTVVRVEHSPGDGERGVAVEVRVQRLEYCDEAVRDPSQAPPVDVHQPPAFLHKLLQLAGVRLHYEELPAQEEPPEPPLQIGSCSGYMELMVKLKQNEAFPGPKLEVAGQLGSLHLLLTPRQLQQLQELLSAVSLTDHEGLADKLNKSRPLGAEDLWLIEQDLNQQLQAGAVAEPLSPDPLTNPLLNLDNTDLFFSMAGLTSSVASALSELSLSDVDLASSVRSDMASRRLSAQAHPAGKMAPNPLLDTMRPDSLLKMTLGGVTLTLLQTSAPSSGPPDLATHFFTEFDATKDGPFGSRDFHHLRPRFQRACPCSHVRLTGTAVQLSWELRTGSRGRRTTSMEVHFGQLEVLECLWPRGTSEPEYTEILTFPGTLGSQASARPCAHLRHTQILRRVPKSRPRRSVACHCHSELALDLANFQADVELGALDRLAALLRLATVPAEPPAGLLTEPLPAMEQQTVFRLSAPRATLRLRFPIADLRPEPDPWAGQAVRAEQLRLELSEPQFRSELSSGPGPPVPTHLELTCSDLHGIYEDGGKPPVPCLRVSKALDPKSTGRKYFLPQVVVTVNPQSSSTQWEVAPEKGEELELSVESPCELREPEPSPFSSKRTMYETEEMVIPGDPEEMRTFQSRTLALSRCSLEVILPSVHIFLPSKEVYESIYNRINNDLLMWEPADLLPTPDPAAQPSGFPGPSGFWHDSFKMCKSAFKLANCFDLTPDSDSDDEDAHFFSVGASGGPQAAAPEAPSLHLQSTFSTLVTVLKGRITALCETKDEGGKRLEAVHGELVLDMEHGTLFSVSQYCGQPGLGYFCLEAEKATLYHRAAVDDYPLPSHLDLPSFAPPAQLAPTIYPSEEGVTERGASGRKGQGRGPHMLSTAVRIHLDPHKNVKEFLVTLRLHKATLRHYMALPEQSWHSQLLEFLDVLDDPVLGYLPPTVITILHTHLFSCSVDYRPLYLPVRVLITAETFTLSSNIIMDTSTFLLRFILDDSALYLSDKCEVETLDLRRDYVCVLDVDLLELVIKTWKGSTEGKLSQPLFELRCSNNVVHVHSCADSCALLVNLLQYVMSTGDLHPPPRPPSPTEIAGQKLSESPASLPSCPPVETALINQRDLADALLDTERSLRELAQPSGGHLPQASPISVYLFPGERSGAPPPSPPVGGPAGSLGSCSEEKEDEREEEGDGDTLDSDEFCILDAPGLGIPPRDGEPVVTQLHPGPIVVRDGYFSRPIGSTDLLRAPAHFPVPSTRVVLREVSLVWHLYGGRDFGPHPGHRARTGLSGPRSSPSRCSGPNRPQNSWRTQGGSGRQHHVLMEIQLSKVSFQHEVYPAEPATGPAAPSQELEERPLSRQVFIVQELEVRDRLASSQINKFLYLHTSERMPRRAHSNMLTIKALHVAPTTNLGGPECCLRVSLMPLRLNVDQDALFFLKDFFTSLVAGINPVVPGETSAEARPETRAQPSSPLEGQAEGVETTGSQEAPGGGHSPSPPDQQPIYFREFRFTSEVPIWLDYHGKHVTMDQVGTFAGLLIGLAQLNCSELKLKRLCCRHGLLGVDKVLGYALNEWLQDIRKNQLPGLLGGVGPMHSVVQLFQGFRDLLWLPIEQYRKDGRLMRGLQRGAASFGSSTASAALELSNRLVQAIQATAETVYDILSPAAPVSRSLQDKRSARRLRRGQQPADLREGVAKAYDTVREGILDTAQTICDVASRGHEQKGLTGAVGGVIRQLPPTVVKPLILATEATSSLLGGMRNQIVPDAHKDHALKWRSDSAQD
HA-ATG2A-3CS (Q2TAZ0, form named): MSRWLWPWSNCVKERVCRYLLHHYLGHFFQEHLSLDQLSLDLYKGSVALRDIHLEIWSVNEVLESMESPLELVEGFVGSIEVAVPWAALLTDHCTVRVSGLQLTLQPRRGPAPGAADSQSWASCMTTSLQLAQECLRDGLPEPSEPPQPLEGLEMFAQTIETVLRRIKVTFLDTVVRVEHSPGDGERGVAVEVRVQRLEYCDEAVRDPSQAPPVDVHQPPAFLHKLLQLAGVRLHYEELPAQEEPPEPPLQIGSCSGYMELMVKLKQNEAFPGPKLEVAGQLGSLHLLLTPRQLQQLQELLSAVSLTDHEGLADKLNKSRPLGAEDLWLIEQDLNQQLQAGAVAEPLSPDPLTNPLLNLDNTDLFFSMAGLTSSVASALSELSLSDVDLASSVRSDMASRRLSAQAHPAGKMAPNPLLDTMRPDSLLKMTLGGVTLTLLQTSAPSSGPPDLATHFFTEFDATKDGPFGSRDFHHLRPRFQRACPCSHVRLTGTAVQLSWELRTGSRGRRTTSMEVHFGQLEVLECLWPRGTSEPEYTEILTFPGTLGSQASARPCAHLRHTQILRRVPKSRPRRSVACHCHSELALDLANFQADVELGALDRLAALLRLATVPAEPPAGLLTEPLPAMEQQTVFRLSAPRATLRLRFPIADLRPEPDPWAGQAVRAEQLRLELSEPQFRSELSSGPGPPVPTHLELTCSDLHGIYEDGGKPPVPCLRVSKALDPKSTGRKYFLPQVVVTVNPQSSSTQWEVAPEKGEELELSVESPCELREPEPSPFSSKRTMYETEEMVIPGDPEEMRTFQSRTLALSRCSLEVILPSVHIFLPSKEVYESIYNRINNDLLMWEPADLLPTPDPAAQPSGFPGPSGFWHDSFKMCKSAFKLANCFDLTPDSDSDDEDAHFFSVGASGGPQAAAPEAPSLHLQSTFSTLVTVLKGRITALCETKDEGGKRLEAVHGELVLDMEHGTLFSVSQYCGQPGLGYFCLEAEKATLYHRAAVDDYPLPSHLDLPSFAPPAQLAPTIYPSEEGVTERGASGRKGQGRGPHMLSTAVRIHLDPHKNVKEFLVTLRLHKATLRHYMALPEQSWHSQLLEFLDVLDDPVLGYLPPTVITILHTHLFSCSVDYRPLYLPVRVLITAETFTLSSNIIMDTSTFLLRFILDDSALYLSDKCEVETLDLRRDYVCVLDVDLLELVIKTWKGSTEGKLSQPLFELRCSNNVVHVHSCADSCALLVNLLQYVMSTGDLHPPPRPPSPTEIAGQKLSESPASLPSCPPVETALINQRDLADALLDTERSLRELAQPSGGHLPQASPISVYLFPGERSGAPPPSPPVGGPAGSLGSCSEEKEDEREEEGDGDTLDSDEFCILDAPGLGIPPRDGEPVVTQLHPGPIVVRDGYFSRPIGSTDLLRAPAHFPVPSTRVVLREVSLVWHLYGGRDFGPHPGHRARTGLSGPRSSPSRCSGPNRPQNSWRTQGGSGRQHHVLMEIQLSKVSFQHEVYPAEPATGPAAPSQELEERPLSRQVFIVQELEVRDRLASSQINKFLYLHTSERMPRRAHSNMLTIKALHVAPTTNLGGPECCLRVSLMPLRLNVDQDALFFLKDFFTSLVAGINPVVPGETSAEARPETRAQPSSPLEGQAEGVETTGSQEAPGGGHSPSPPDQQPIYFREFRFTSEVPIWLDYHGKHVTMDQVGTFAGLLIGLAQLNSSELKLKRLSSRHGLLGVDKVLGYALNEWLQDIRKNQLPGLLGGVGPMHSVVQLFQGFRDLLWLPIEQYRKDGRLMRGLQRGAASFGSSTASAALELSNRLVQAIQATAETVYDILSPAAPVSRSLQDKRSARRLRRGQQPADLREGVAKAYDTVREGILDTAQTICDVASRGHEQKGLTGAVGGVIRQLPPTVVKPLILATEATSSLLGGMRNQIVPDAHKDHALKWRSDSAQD
UniProt O75608: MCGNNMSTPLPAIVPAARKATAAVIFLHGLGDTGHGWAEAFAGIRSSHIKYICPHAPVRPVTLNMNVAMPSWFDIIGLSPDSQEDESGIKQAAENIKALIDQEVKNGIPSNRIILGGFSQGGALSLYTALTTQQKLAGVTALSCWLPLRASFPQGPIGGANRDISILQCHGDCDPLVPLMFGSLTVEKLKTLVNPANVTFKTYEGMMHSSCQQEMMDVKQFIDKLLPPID
UniProt O95372: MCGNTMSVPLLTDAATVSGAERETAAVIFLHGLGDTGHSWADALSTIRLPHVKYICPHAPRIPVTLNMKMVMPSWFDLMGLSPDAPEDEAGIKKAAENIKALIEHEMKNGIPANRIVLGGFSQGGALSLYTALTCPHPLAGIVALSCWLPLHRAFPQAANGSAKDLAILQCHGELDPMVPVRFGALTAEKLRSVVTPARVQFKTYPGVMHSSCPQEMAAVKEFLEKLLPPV

Assays:
Myc-ZDHHC11 = target: T1, Myc-ZDHHC11 (UniProt Q9H8X9); test: co-IP; tagged proteins expressed (transfected or stably expressing) in HEK293T cells, WT or APT1-KO, in complete media or treated with EBSS; NP-40 lysis buffer (50 mM HEPES, 150 mM NaCl, 10% glycerol, 1% NP-40, 1 mM EDTA, 1 mM EGTA, pH 7.4), 4 °C; Western blot for the partner's tag
T1 sequence: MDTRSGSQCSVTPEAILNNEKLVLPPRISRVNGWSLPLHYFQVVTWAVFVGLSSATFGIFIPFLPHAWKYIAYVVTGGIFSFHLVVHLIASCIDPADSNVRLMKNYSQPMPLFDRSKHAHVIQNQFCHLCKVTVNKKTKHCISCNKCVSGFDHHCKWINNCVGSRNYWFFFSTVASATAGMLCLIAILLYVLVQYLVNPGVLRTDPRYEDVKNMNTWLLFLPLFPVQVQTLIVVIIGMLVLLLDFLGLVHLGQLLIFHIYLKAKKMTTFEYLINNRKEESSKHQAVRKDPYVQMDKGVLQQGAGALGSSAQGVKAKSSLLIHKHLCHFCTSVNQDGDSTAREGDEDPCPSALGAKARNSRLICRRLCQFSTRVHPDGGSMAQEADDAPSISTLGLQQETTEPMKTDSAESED

Myc-ZDHHC11 (∆1-42) = target: T2, Myc-ZDHHC11 (∆1-42) (UniProt Q9H8X9); test: as above
T2 sequence: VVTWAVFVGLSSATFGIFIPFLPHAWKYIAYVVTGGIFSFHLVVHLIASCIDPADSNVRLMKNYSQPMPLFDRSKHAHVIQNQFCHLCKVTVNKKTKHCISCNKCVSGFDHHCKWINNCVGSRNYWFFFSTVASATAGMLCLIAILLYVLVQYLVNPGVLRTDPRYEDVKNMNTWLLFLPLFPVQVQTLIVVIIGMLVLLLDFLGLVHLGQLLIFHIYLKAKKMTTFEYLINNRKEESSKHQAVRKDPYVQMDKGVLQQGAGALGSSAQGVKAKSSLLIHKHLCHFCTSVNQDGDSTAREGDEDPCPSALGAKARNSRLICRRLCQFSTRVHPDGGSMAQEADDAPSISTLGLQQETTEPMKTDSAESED

Flag-ATG2A (human) [1] = target: Flag-ATG2A (human) (UniProt Q2TAZ0); test: as above
HA-ATG2A (human) [2] = target: HA-ATG2A (human) (UniProt Q2TAZ0); test: as above
recombinant GST-APT1 = recombinant GST-APT1 (UniProt O75608); test: pull-down; purified GST-APT1/2 incubated with purified Flag-ATG2A overnight at 4 °C, then GSH agarose beads for 4 h at 4 °C; Western blot with anti-ATG2A; both purified
recombinant GST-APT2 = recombinant GST-APT2 (UniProt O95372); test: as above
HA-ZDHHC11 = target: T3, HA-ZDHHC11 (UniProt Q9H8X9); test: pull-down; HA-ZDHHC11 held on anti-HA beads (from HEK293T lysate, washed three times with high-salt IP lysis buffer), incubated with purified Flag-ATG2A for 6 h at 4 °C; Western blot with anti-ATG2A; both purified
T3 sequence: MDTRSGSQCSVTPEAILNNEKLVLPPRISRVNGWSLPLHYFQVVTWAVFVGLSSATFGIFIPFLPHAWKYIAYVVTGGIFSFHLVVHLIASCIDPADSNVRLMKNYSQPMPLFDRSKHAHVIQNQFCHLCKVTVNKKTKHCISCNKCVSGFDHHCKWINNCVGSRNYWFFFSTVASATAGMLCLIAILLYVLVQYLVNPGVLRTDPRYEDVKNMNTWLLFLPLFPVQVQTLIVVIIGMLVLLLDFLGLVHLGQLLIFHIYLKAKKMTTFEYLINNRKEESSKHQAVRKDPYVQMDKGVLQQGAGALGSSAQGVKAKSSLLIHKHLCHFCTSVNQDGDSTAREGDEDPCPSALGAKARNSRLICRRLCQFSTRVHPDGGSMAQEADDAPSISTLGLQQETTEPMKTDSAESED

Flag-ATG2A (human) [3] = target: Flag-ATG2A (human) (UniProt Q2TAZ0); test: co-IP; tagged proteins expressed (transfected or stably expressing) in HEK293T cells, WT or APT1-KO, in complete media or treated with EBSS; NP-40 lysis buffer (50 mM HEPES, 150 mM NaCl, 10% glycerol, 1% NP-40, 1 mM EDTA, 1 mM EGTA, pH 7.4), 4 °C; Western blot for the partner's tag; remark: listed apart in the source
HA-ATG2A (human) [4] = target: HA-ATG2A (human) (UniProt Q2TAZ0); test: as above; remark: listed apart in the source
HA-ATG2A-3CS (human) = HA-ATG2A-3CS (human) (UniProt Q2TAZ0); test: as above
[5] = target: endogenous ATG2A (human (endogenous in HEK293T)) (UniProt Q2TAZ0); test: co-IP; endogenous proteins in HEK293T cells

Molecule: Flag-ATG2A (from UniProt Q2TAZ0 1-1938)
- binding (Myc-ZDHHC11): binds
- binding (Myc-ZDHHC11 (∆1-42)): no binding

Molecule: HA-APT1 (from UniProt O75608 1-230) (enzyme)
- binding (Flag-ATG2A (human) [1]): binds

Molecule: HA-APT2 (from UniProt O95372 1-231) (enzyme)
- binding (Flag-ATG2A (human) [1]): binds

Molecule: Myc-APT1 (from UniProt O75608 1-230) (enzyme)
- binding (HA-ATG2A (human) [2]): binds

Molecule: purified Flag-ATG2A (from UniProt Q2TAZ0 1-1938)
- binding (recombinant GST-APT1): binds
- binding (recombinant GST-APT2): binds
- binding (HA-ZDHHC11): binds

B1: HA-ZDHHC11 (enzyme, UniProt Q9H8X9 1-412)
chain: MDTRSGSQCSVTPEAILNNEKLVLPPRISRVNGWSLPLHYFQVVTWAVFVGLSSATFGIFIPFLPHAWKYIAYVVTGGIFSFHLVVHLIASCIDPADSNVRLMKNYSQPMPLFDRSKHAHVIQNQFCHLCKVTVNKKTKHCISCNKCVSGFDHHCKWINNCVGSRNYWFFFSTVASATAGMLCLIAILLYVLVQYLVNPGVLRTDPRYEDVKNMNTWLLFLPLFPVQVQTLIVVIIGMLVLLLDFLGLVHLGQLLIFHIYLKAKKMTTFEYLINNRKEESSKHQAVRKDPYVQMDKGVLQQGAGALGSSAQGVKAKSSLLIHKHLCHFCTSVNQDGDSTAREGDEDPCPSALGAKARNSRLICRRLCQFSTRVHPDGGSMAQEADDAPSISTLGLQQETTEPMKTDSAESED
- binding (Flag-ATG2A (human) [3]): binds

B2: Myc-ZDHHC11 (enzyme, UniProt Q9H8X9 1-412)
chain: MDTRSGSQCSVTPEAILNNEKLVLPPRISRVNGWSLPLHYFQVVTWAVFVGLSSATFGIFIPFLPHAWKYIAYVVTGGIFSFHLVVHLIASCIDPADSNVRLMKNYSQPMPLFDRSKHAHVIQNQFCHLCKVTVNKKTKHCISCNKCVSGFDHHCKWINNCVGSRNYWFFFSTVASATAGMLCLIAILLYVLVQYLVNPGVLRTDPRYEDVKNMNTWLLFLPLFPVQVQTLIVVIIGMLVLLLDFLGLVHLGQLLIFHIYLKAKKMTTFEYLINNRKEESSKHQAVRKDPYVQMDKGVLQQGAGALGSSAQGVKAKSSLLIHKHLCHFCTSVNQDGDSTAREGDEDPCPSALGAKARNSRLICRRLCQFSTRVHPDGGSMAQEADDAPSISTLGLQQETTEPMKTDSAESED
- binding (HA-ATG2A (human) [4]): binds

B3: Myc-VMP1 (protein, UniProt Q96GC9 1-406)
chain: MAENGKNCDQRRVAMNKEHHNGNFTDPSSVNEKKRREREERQNIVLWRQPLITLQYFSLEILVILKEWTSKLWHRQSIVVSFLLLLAVLIATYYVEGVHQQYVQRIEKQFLLYAYWIGLGILSSVGLGTGLHTFLLYLGPHIASVTLAAYECNSVNFPEPPYPDQIICPDEEGTEGTISLWSIISKVRIEACMWGIGTAIGELPPYFMARAARLSGAEPDDEEYQEFEEMLEHAESAQDFASRAKLAVQKLVQKVGFFGILACASIPNPLFDLAGITCGHFLVPFWTFFGATLIGKAIIKMHIQKIFVIITFSKHIVEQMVAFIGAVPGIGPSLQKPFQEYLEAQRQKLHHKSEMGTPQGENWLSWMFEKLVVVMVCYFILSIINSMAQSYAKRIQQRLNSEEKTK
- binding (HA-ATG2A (human) [4]): binds
- binding (HA-ATG2A-3CS (human)): binds

B4: GFP-WIPI4 (protein, UniProt Q9Y484 1-360)
chain: MTQQPLRGVTSLRFNQDQSCFCCAMETGVRIYNVEPLMEKGHLDHEQVGSMGLVEMLHRSNLLALVGGGSSPKFSEISVLIWDDAREGKDSKEKLVLEFTFTKPVLSVRMRHDKIVIVLKNRIYVYSFPDNPRKLFEFDTRDNPKGLCDLCPSLEKQLLVFPGHKCGSLQLVDLASTKPGTSSAPFTINAHQSDIACVSLNQPGTVVASASQKGTLIRLFDTQSKEKLVELRRGTDPATLYCINFSHDSSFLCASSDKGTVHIFALKDTRLNRRSALARVGKVGPMIGQYVDSQWSLASFTVPAESACICAFGRNTSKNVNSVIAICVDGTFHKYVFTPDGNCNREAFDVYLDICDDDDF
- binding (HA-ATG2A (human) [4]): binds
- binding (HA-ATG2A-3CS (human)): binds

B5: endogenous ZDHHC11 (enzyme, UniProt Q9H8X9 1-412)
chain: MDTRSGSQCSVTPEAILNNEKLVLPPRISRVNGWSLPLHYFQVVTWAVFVGLSSATFGIFIPFLPHAWKYIAYVVTGGIFSFHLVVHLIASCIDPADSNVRLMKNYSQPMPLFDRSKHAHVIQNQFCHLCKVTVNKKTKHCISCNKCVSGFDHHCKWINNCVGSRNYWFFFSTVASATAGMLCLIAILLYVLVQYLVNPGVLRTDPRYEDVKNMNTWLLFLPLFPVQVQTLIVVIIGMLVLLLDFLGLVHLGQLLIFHIYLKAKKMTTFEYLINNRKEESSKHQAVRKDPYVQMDKGVLQQGAGALGSSAQGVKAKSSLLIHKHLCHFCTSVNQDGDSTAREGDEDPCPSALGAKARNSRLICRRLCQFSTRVHPDGGSMAQEADDAPSISTLGLQQETTEPMKTDSAESED
- binding [5]: binds

B6: HA-ZDHHC6 (enzyme, UniProt Q9H6R6 1-413)
chain: MGTFCSVIKFENLQELKRLCHWGPIIALGVIAICSTMAMIDSVLWYWPLHTTGGSVNFIMLINWTVMILYNYFNAMFVGPGFVPLGWKPEISQDTMYLQYCKVCQAYKAPRSHHCRKCNRCVMKMDHHCPWINNCCGYQNHASFTLFLLLAPLGCIHAAFIFVMTMYTQLYHRLSFGWNTVKIDMSAARRDPLPIVPFGLAAFATTLFALGLALGTTIAVGMLFFIQMKIILRNKTSIESWIEEKAKDRIQYYQLDEVFVFPYDMGSRWRNFKQVFTWSGVPEGDGLEWPVREGCHQYSLTIEQLKQKADKRVRSVRYKVIEDYSGACCPLNKGIKTFFTSPCTEEPRIQLQKGEFILATRGLRYWLYGDKILDDSFIEGVSRIRGWFPRKCVEKCPCDAETDQAPEGEKKNR
- binding (Flag-ATG2A (human) [3]): no binding
